The structures appear in SMILES notation. Where “and” joins values, the source holds several entries; their conditions need not be identical. Identical values can stand only once. Like-named read-outs stand apart in the source and are kept apart here. Where only a bound is given, the exact number is not on record here.

A word on the Ki: it is the dissociation constant of the complex between target and ligand, obtained from inhibition or displacement. For orientation: IC50 means the concentration at which inhibition is half-maximal.

Assay [1] has as its target T1, human dopamine transporter (hDAT) (Homo sapiens, UniProt Q01959). The assay is described as follows: Inhibition of [125I]RTI-55 binding in HEK-hDAT cell membranes. Set-up: expressed in transfected cells.
T1 sequence (Q01959 whole entry): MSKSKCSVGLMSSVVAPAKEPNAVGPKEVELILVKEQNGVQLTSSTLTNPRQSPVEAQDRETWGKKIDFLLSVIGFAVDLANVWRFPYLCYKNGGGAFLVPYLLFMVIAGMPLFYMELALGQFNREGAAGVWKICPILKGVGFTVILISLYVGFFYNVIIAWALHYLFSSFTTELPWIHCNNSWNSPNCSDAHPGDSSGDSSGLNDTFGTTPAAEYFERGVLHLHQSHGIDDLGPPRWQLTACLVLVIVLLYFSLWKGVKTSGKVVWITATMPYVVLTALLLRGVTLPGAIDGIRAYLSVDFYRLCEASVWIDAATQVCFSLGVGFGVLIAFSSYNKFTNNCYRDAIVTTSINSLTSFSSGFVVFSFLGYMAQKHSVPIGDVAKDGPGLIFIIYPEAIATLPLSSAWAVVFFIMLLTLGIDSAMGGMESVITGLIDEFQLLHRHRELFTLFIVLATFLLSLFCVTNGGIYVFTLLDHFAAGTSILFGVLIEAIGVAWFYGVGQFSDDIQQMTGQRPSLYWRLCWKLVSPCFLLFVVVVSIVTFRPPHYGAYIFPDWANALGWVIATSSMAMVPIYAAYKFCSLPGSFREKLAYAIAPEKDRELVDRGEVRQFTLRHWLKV
In assay [2] the target is T1, human dopamine transporter (hDAT). The assay is described as follows: cell-based.
Assay [3] addresses T2, human norepinephrine transporter (hNET) (Homo sapiens, UniProt P23975). In words: cell-based.
T2 sequence (P23975 whole entry): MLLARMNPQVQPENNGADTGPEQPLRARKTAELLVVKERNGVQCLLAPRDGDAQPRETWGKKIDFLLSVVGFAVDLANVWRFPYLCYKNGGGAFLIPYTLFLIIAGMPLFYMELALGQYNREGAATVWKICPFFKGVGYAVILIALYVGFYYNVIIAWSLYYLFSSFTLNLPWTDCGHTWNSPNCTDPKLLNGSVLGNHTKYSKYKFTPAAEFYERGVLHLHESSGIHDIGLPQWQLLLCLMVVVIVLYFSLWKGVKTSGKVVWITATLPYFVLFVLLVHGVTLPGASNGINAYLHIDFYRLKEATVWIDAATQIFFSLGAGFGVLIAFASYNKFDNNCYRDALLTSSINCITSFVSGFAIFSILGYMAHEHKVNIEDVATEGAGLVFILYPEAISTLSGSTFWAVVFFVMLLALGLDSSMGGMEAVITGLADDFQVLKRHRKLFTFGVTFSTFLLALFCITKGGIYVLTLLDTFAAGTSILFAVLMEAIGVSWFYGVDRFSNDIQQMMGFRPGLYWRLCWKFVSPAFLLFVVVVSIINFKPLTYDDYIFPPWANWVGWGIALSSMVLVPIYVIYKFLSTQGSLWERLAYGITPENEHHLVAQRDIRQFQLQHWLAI
In assay [4] the target is T2, human norepinephrine transporter (hNET). In words: Inhibition of radioligand binding in HEK-hNET cell membranes. Also on record: expressed in transfected cells.
Setting [5] is: Table 1, read-out: Binding (Ki, nM) hDAT.
The mark [6] stands for this setting: read-out: Binding (Ki, nM) hNET.
The mark [7] stands for this setting: Reuptake (Kr, nM) hDAT, Table 1.
The mark [8] stands for this setting: Reuptake (kup, nM) hNET, Table 2.
The mark [9] stands for this setting: Table 2, read-out: Binding (ki, nM) hDAT.
Where [10] appears, read: Table 2, read-out: Binding (ki, nM) hNET.
Setting [11] is: Reuptake (kup, nM) hDAT, Table 2.
Setting [12] is: Reuptake (Kr, nM) hNET, Table 1.
The mark [13] stands for this setting: Table 1, read-out: Binding (Ki, nM) hNET.
Setting [14] is: Table 17, mean ± S.E.M., read-out: Binding (Ki, nM) hDAT.

In assay [1] (Binding (Ki, nM) hDAT), `COc1ccc(F)cc1CC[C@@H]1CC[C@H](CN)O1` (relative stereo) [Compound 18j, Cis-2-(aminomethyl)-5-(2′-methoxy-5′-fluorophenethyl)tetrahydrofuran] displayed a Ki of 30300 nM. Moreover, in assay [2], the IC50 came out at 34300 nM.
As for `NCCC1CCC(CCc2ccc(O)cc2)O1` (centres unmarked) [2-(aminoethyl)-5-(4′-hydroxy-phenethyl) tetrahydrofuran], the Ki was 2130 nM in assay [3] (Reuptake (Kr, nM) hNET); 5500 nM in assay [1] (setting [5]); 5950 nM in assay [4] (setting [6]); 2530 nM in assay [2] (setting [7]).
On to `c1ccc(CCC2CCC(CCNCCC3CCC(CCc4ccccc4)O3)O2)cc1` (centres unmarked) [N,N-bis(5′-phenethyl-2′-tetrahydro-furyl-ethyl) Amine], for which the Ki in assay [3] (setting [8]) is 169 nM; in assay [1] (setting [9]), 30 nM and 18 nM; in assay [4] (setting [10]) it was 379 nM and 361 nM; in assay [2] (setting [11]), 1560 nM.
In the case of `NCCC1CCC(CCc2ccccc2)O1` (centres unmarked) [MM-II-41], the inhibition constant Ki in assay [3] (setting [12]) is 2930 nM and 3210 nM; in assay [1] (setting [5]), 6490 nM and 5110 nM; in assay [4] (setting [13]), 7540 nM and 6380 nM; in assay [2] (setting [7]) it was 2780 nM and 2700 nM.
For the compound `COc1ccc(F)cc1CCC1CCC(CCNCCCCCN2N=C(c3ccc(OC)c(OC)c3)C3CC=CC[C@H]3C2=O)O1` (stereo in doubt) [Compound 21, 4-(3,4-Dimethoxy-phenyl)-2-[5-(2-{5-[2-(5-fluoro-2-methoxy-phenyl)-ethyl]-thtrahydro-furan-2-yl}-ethylamino)-pentyl]-4,5,8,8a-tetrahydro-2H-phthalazin-1-one], the Ki in assay [1] (Table 3, mixtures of diastereomers, read-out: Binding (Ki, nM) hDAT) was 872 ± 65 nM. Also, the IC50 in assay [2] (Reuptake (IC50, nM) hDAT, Table 3, mixtures of diastereomers) is 5390 ± 1060 nM.
For `COc1ccc(C2=NN(CCCCCNCCC(Oc3ccc(C(F)(F)F)cc3)c3ccccc3)C(=O)C3CC=CCC23)cc1OC` (single isomer, unassigned) [24(R), 4-(3,4-Dimethoxy-phenyl)-2-{5-[3-phenyl-3-(4-trifluoromethyl-phenoxy)-propylamino]-pentyl}-4a,5,8,8a-tetrahydro-2H-phthalazin-1-one], the IC50 in assay [3] (Reuptake (IC50, nM) hNET) was more than 8280 nM; in assay [2] (Reuptake (IC50, nM) hDAT, Table 17, mean ± S.E.M.), 6670 ± 1630 nM. Further, the Ki was 3300 ± 408 nM in assay [1] (setting [14]) and 5830 ± 1750 nM in assay [4] (Binding (Ki, nM) hNET).
On to `Cc1cc(CCC2CCC(CCNCCC3CCC(CCc4ccc(F)c(C)c4)O3)O2)ccc1F` (centres unmarked) [N,N-bis(5′-(p-fluoro-m-methyl-phenethyl)-2′-tetra-hydro-furylethyl) amine], for which the Ki in assay [3] (setting [8]) turned out to be 7680 nM; in assay [1] (setting [9]), 798 nM; in assay [4] (setting [10]), 1570 nM; in assay [2] (setting [11]), 5740 nM.
Consider `NCCC1CCC(CCc2ccc(OC(F)(F)F)cc2)O1` (centres unmarked) [2-(aminoethyl)-5-(4′-trifluoro-methoxyphenethyl)tetra-hydrafuran], for which the Ki in assay [3] (setting [12]), in assay [1] (setting [5]), in assay [4] (setting [13]) and in assay [2] (setting [7]) was more than 10000 nM in each case.
`C(=C[C@@H]1CCCN1)c1ccccc1` (stereo in doubt) [2-Styrenyl Pyrrolidine]: the IC50 worked out at 104 nM in assay [3] and 1270 nM in assay [2] (Reuptake (IC50, nM) hDAT, Table 6). Moreover, the Ki in assay [1] (Table 6, read-out: Binding (Ki, nM) hDAT) is 4130 nM; in assay [4] (Table 6, read-out: Binding (Ki, nM) hNET), more than 10000 nM.
As for `NCC1CCC(CCc2ccccc2)O1` (centres unmarked) [2-(aminomethyl)-5-(phenethyl) tetrahydrofuran], the Ki worked out at 1500 nM in assay [1] (setting [5]), 2740 nM in assay [4] (setting [13]) and 867 nM in assay [2] (setting [7]).
With `NCCC1CCC(CCc2ccc(-c3ccccc3)cc2)O1` (centres unmarked) [2-(aminoethyl)-5-(4′-phenylphenethyl) tetrahydrofuran], the inhibitory constant (Ki) stood at 6090 nM in assay [3] (setting [12]), 7900 nM in assay [1] (setting [5]), 1270 nM in assay [4] (setting [13]) and 1900 nM in assay [2] (setting [7]).
As to `COc1ccc(F)cc1[C@@H]1CC[C@H](CCN)O1` (relative stereo) [cis-2-(aminoethyl)-5-(2′-methoxy-5′-fluorophenyl) tetrahydrofuran], the Ki in assay [1] (setting [5]) and in assay [2] (setting [7]) was more than 10000 nM throughout.
Turning to `NCC1CCC(c2ccc3ccccc3c2)O1` (centres unmarked) [2-(aminomethyl)-5-(2′-naphthyl) tetrahydrofuran], the Ki came out at 58 nM in assay [3] (setting [12]), 512 nM in assay [1] (setting [5]) and 28 nM in assay [2] (setting [7]).
Regarding `COc1ccc(C2=NNC(=O)[C@@H]3CC=CC[C@H]23)cc1OC` (racemic) [Compound 19, 4-(3,4-Dimethoxy-phenyl)-4a,5,8,8a-tetrahydro-2H-phthalazin-1-one, reference compound], the IC50 in assay [3] (Reuptake (IC50, nM) hNET) was more than 100000 nM; in assay [2], more than 100000 nM. The Ki in assay [1] (Binding (Ki, nM) hDAT) was more than 100000 nM; in assay [4] (Binding (Ki, nM) hNET) it was more than 100000 nM.
Consider `COc1ccc(F)cc1[C@@H]1CC[C@@H](CN)O1` (stereo in doubt) [trans-2-(aminomethyl)-5-(2′-methoxy-5′-fluorophenyl) tetrahydrofuran], for which the Ki is more than 10000 nM in assay [1] (Binding (Ki, nM) hDAT) and more than 10000 nM in assay [2] (setting [7]).
In the case of `CN(CCC1CCC(CCc2ccccc2)O1)CCC1CCC(CCc2ccccc2)O1` (centres unmarked) [N,N-bis(5′-phenethyl-2′-tetra-hydro-furylethyl) methyl-amine], the inhibition constant (Ki) turned out to be 1280 nM in assay [3] (setting [8]), 84 nM in assay [1] (setting [9]), 168 nM in assay [4] (setting [10]) and 582 nM in assay [2] (setting [11]).
Consider `COc1ccc2ccccc2c1C1CCC(CN)O1` (centres unmarked) [2-(aminomethyl)-5-(2′-methoxy-1′-naphethyl) tetahydrofuran], for which the Ki was 339 nM in assay [3] (setting [12]), more than 10000 nM in assay [1] (setting [5]), 439 nM in assay [4] (setting [13]) and 603 nM in assay [2] (setting [7]).
For `CC(C)(C)c1ccc(C2CCC(CN)O2)cc1` (centres unmarked) [2-(aminomethyl)-5-(4′-t-butylphenyl) tetrahydrofuran], the Ki was found to be 2320 nM in assay [3] (setting [12]), 4540 nM in assay [4] (setting [13]) and 4300 nM in assay [2] (setting [7]).
Take `c1ccc(C2CCC(CCNCCC3CCC(c4ccccc4)O3)O2)cc1` (centres unmarked) [N,N-bis(5′-phenyl-2′-tetrahydro-furyl-ethyl) amine]: the Ki in assay [3] (setting [8]) turned out to be 802 nM; in assay [1] (setting [9]), 970 nM; in assay [4] (setting [10]), 777 nM; in assay [2] (setting [11]), 609 nM.
In assay [3] (Reuptake (IC50) hNET), `COc1ccc(C2=NN(CCCCCNCCC(Oc3ccc(C(F)(F)F)cc3)c3ccccc3)C(=O)C3CC=CCC23)cc1OC` (single isomer, unassigned) [23(S), 4-(3,4-Dimethoxy-phenyl)-2-{5-[3-phenyl-3-(4-trifluoromethyl-phenoxy)-propylamino]-pentyl}-4a,5,8,8a-tetrahydro-2H-phthalazin-1-one] registered an IC50 of more than 10000 nM. The Ki in assay [1] (setting [14]) came out at 3130 ± 194 nM; in assay [4] (Binding (Ki, nM) hNET), 4150 ± 693 nM.
For the compound `COc1ccc(F)cc1[C@H]1CC[C@H](CN)O1` (stereo in doubt) [Compound 18a, Trans-2-aminomethyl-5-(2′-methoxy-5′-fluorophenyl)tetrahydrofuran], the Ki in assay [1] (Binding (Ki, nM) hDAT) is more than 10000 nM. This compound showed an IC50 in assay [2] of more than 10000 nM.
As for `NCC1CCC(c2ccc(Br)cc2)O1` (centres unmarked) [2-(aminomethyl)-5-(4′-bromophenyl) tetrahydrofuran], the figures for the Ki in assay [3] (setting [12]), in assay [1] (setting [5]) and in assay [2] (setting [7]) were 60 nM, 6120 nM and 167 nM, respectively.
Regarding `NCC1CCC(c2ccccc2)O1` (centres unmarked) [2-(aminomethyl)-5-phenyltetra-hydrofuran], the inhibition constant (Ki) in assay [1] (read-out: Binding (Ki, nM) hDAT) is 916 nM; in assay [4] (setting [6]), 2770 nM; in assay [2] (setting [7]) it was 147 nM.
Regarding `COc1ccc(F)cc1C1CCC(CCNCCC2CCC(c3cc(F)ccc3OC)O2)O1` (stereo not drawn) [N,N-bis (cis-5′-(2″- methoxy-5″-fluoro-phenyl-2′-tetrahydro-furyl)ethyl) Amine], the Ki in assay [3] (setting [8]) was 4180 nM; in assay [1] (setting [9]), 2650 nM; in assay [4] (setting [10]) it was 3030 nM; in assay [2] (setting [11]), 2980 nM.
Take `c1ccc(CC2CCC(CCNCCC3CCC(Cc4ccccc4)O3)O2)cc1` (centres unmarked) [N,N-bis(5′-benzyl-2′-tetrahydro-furyl)-2-ethyl) amine]: the Ki is 347 nM in assay [3] (setting [8]), 1310 nM in assay [1] (setting [9]), 605 nM in assay [4] (setting [10]) and 564 nM in assay [2] (setting [11]).
Regarding `COc1ccc(CCC2CCC(CN)O2)c2ccccc12` (centres unmarked) [2-(aminomethyl)-5-(4′-methoxy-1′-naphthylethyl) tetrahydrofuran], the Ki in assay [3] (setting [12]) is 2120 nM; in assay [2] (setting [7]), 2110 nM.
Take `NCC1CCC(CCCc2ccccc2)O1` (centres unmarked) [2-(aminomethyl)-5-(3′-phenyl-propyl) tetrahydrofuran]: the Ki in assay [1] (setting [5]) was 1300 nM; in assay [4] (setting [13]), 576 nM; in assay [2] (setting [7]) it was 1880 nM.
Take `NCC1CCC(Cc2ccccc2)O1` (centres unmarked) [2-(aminomethyl)-5-benzyl tetrahydrofuran]: the Ki in assay [1] (setting [5]) is 1760 nM; in assay [4] (setting [13]), 1910 nM; in assay [2] (setting [7]), 876 nM.
Regarding `COc1ccc(F)cc1CCC1CCC(CN)O1` (centres unmarked) [2-aminomethyl-5-(2′-methoxy-5′-fluorophenethyltetrahydrofuran], the Ki in assay [1] (Binding (Ki, nM) hDAT) was more than 10000 nM; in assay [2] (setting [7]), 887 nM.
As for `COc1ccc(C2CCC(CN)O2)cc1` (centres unmarked) [2-(aminomethyl)-5-(4′-methoxy-phenyl)tetra-hydrofuran], the figures for the Ki in assay [3] (setting [12]), in assay [4] (setting [13]) and in assay [2] (setting [7]) were 92 nM, 2010 nM and 668 nM, respectively.
On to `NCC1CCC(CCc2cccnc2)O1` (centres unmarked) [2-(aminomethyl)-5-(3′-pyridylethyl) tetrahydrofuran], for which the figures for the Ki in assay [3] (setting [12]) and in assay [4] (setting [13]) were more than 10000 nM and 8520 nM, respectively.
Take `CNCCC1CCC(CCc2cc(F)ccc2OC)O1` (centres unmarked) [Compound 24, (2-{5-[2-(5-Fluoro-2-methoxy-phenyl)-ethyl]-tetrahydro-furan-2-yl}-ethyl)-methyl-amine]: the Ki in assay [1] (Binding (Ki, nM) hDAT) is more than 10000 nM. The concentration for half-maximal inhibition (IC50) in assay [2] is more than 10000 nM.

For the origin of these results see patent US20130123253A1, “MODULATORS OF CENTRAL NERVOUS SYSTEM NEUROTRANSMITTERS” (HUMAN BIOMOLECULAR RESEARCH INSTITUTE, priority 2004, published 2013).
